Assay results reported in the supplement of paper PMC3694890.
± gives the uncertainty stated by the source. This is one part of the list. A small y stands for phosphotyrosine.

Target: GRB2 (endogenous complexes from cell lysate), P62993
Assay: GRB2 complex binding differential signal (pY peptide minus Ala control peptide) (fluorescence intensity units); higher = stronger GRB2 complex binding
Experimental: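 In situ synthesized µParaflo PepArray of 6-mer peptides, each starting with an N-terminal phosphotyrosine (lowercase 'y' = pY) followed by 5 native residues. Peptides are tethered to glass through a long linker. Chips were incubated overnight at 4°C with total cell lysate (1 mg in 1 mL) from MCF10A, MCF7, T47D or MDA-MB-231 cells. Bound endogenous GRB2-containing complexes were detected with rabbit anti-GRB2 and an Alexa647 secondary antibody. Signals are background-subtracted and averaged over replicate spots, then the matched Ala-substituted control peptide signal is subtracted (differential signal).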
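Also: phosphopeptide probes on the chip at 1–4 µM, lysate proteins bound in 20 mM Tris pH 7.0 buffer with 140 mM NaCl, 1% Triton X-100 and 5% glycerol.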

Binder	GRB2 complex binding differential signal (MCF7)	GRB2 complex binding differential signal (MCF10A)	GRB2 complex binding differential signal (MDA-MB-231)	GRB2 complex binding differential signal (T47D)
yEMEED [EGFR_316/A1]	141 ± 260	110 ± 370	121 ± 230	294 ± 1000
yPAPKC [ABL2_261/A1]	1010 ± 320	1560 ± 690	780 ± 390	830 ± 1100
yVMASV [EGFR_764/A1]	742 ± 1100	758 ± 250	1440 ± 440	2660 ± 1000
yHAEGG [EGFR_869/A1]	1100 ± 320	1070 ± 1100	678 ± 420	1160 ± 1300
yGVSPI [ABL2_272/A1]	1850 ± 1100	2050 ± 630	605 ± 380	1670 ± 1100
yDGIPA [EGFR_915/A1]	1340 ± 810	1000 ± 270	622 ± 420	1580 ± 1200
yKGLWI [EGFR_727/A1]	-61.6 ± 260	253 ± 860	449 ± 310	616 ± 1400
yRALMD [EGFR_998/A1]	2790 ± 2200	940 ± 310	799 ± 380	2080 ± 1400
yQDPHS [EGFR_1125/A1]	8050 ± 1600	6280 ± 1800	1600 ± 520	1720 ± 1200
yRKFTS [EPHA2_791/A1]	666 ± 250	405 ± 210	614 ± 320	1290 ± 1100
yEDPAQ [EPHA1_605/A1]	5680 ± 1200	2590 ± 540	3090 ± 660	2270 ± 1400
yLRVAP [EGFR_1197/A1]	1970 ± 790	532 ± 1700	767 ± 440	531 ± 1500
yMIMVK [EGFR_944/A1]	865 ± 1000	445 ± 300	617 ± 290	952 ± 1300
yEDPNQ [EPHA2_594/A1]	5750 ± 1500	4460 ± 1700	2480 ± 500	2220 ± 1100
yTEHFM [EPHA2_921/A1]	34.7 ± 260	239 ± 210	389 ± 280	268 ± 1000
yILHFH [EPHA1_930/A1]	-177 ± 280	-171 ± 600	168 ± 400	126 ± 1500
yFSKSE [EPHA2_575/A1]	1150 ± 2200	310 ± 190	909 ± 330	715 ± 1000

Binder	GRB2 complex binding differential signal (MCF7)	GRB2 complex binding differential signal (MCF10A)	GRB2 complex binding differential signal (MDA-MB-231)	GRB2 complex binding differential signal (T47D)
yKGMLK [EPHA2_628/A1]	450 ± 370	400 ± 200	575 ± 310	1060 ± 1400
yLNTVQ [EGFR_1138/A1]	16700 ± 3400	27800 ± 6300	8510 ± 1700	-3170 ± 8800
yTAIEK [EPHA2_930/A1]	2720 ± 390	1800 ± 290	810 ± 600	847 ± 1400
yVDPHT [EPHA3_596/A1]	10100 ± 2100	5320 ± 1400	2920 ± 670	2830 ± 3700
ySLLGL [EPHA2_960/A1]	16 ± 160	65.1 ± 170	464 ± 510	868 ± 1100
yNPTTY [EGFR_270/A1]	-1590 ± 740	62.4 ± 410	142 ± 250	356 ± 1200
yVTAES [ABL2_231/A1]	2940 ± 760	2470 ± 440	1140 ± 410	1200 ± 1100
ySSDPT [EGFR_1069/A1]	2640 ± 920	2380 ± 1100	1880 ± 400	1340 ± 1100
yQQDFF [EGFR_1172/A1]	260 ± 600	392 ± 320	955 ± 400	2540 ± 1200
yHNQPL [EGFR_1110/A1]	19500 ± 4300	11800 ± 1300	1910 ± 500	7820 ± 2800
yINQSV [EGFR_1092/A1]	52800 ± 6800	16200 ± 16000	6590 ± 850	22200 ± 4000
yTTSGG [EPHA2_772/A1]	4390 ± 730	4170 ± 920	1210 ± 290	2590 ± 1400
yVDLQA [EPHA1_599/A1]	995 ± 380	414 ± 310	1050 ± 800	1950 ± 1100
yVHRDL [EPHA2_735/A1]	623 ± 350	373 ± 220	453 ± 290	727 ± 1100
yETQGG [EPHA1_781/A1]	1750 ± 630	1350 ± 340	1100 ± 540	940 ± 1200
yLVIQG [EGFR_978/A1]	36.4 ± 220	163 ± 340	634 ± 1100	513 ± 1100
